Results are given in words; binding and its absence hold for the method and conditions named. For part of these data: In cells and extracts the contact can be indirect. Some entries that bind do so weakly or less than the wild type. For part of these data: Where a sequence is shown, tags or fusion partners need not be part of it.

Amino acid sequences for entries named in this document (tags omitted). A change or cut given only in a name is not applied to a line headed by its entry. Chains listed by the source or under a name are the forms on record and can include a tag or linker. Residues count along the entry.
UniProt O35433: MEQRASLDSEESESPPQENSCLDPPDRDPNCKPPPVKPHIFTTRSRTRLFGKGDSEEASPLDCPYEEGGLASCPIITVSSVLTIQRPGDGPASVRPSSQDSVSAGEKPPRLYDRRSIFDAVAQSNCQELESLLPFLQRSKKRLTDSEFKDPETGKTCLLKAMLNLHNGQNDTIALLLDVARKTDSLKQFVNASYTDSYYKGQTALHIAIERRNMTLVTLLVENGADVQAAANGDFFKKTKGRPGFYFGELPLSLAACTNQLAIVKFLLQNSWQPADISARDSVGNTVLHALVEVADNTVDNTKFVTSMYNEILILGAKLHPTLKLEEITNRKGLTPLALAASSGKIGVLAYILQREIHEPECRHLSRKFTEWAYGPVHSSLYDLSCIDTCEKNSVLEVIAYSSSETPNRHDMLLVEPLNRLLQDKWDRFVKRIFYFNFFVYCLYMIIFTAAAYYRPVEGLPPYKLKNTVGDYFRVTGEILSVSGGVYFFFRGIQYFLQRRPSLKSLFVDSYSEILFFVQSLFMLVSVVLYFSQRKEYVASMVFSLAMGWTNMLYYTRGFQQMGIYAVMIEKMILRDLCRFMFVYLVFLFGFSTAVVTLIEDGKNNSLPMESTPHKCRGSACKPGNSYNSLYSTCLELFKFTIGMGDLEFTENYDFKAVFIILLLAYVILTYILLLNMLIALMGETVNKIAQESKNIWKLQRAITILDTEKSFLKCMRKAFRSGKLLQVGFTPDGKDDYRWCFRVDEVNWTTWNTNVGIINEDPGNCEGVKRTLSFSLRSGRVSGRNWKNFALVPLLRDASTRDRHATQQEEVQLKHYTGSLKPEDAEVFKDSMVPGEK
V1N-GST (GST-fusion protein containing the N terminus of TRPV1): residues 1-433 of O35433
FLAG-1–359 (TRPV1 N-terminal truncation aa 1–359): residues 1-359 of O35433
FLAG-1–110 (TRPV1 membrane-distal domain, aa 1–110): residues 1-110 of O35433
FLAG-111–433 (TRPV1 N-terminal truncation aa 111–433): residues 111-433 of O35433
FLAG-111–359 (TRPV1 N-terminal truncation aa 111–359): residues 111-359 of O35433
UniProt Q704Y3: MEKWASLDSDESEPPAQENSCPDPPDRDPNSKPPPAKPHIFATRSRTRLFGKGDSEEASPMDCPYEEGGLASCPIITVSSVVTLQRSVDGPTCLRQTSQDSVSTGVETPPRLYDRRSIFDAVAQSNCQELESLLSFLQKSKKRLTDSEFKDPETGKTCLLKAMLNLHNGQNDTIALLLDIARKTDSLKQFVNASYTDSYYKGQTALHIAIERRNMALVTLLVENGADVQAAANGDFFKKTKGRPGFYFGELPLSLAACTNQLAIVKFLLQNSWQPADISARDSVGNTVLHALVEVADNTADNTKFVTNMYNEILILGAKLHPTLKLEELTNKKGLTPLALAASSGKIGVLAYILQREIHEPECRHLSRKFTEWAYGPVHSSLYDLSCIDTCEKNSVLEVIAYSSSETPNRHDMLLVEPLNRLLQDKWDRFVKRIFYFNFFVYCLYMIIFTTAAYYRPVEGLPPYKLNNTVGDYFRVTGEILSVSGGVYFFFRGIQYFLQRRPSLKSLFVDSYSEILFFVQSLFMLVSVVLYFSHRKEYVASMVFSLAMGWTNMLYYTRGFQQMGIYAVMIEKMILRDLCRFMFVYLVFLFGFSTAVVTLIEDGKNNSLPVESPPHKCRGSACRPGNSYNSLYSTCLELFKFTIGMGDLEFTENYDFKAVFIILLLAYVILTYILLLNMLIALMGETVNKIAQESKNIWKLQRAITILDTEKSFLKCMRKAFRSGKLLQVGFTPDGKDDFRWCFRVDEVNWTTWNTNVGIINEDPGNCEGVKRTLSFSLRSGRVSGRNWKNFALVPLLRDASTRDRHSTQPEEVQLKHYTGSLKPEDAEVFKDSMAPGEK
TRPV1 N terminus (aa 1–433) fused to the GAL4 DNA-binding domain (V1-Nt-pGBKT7): residues 1-433 of Q704Y3

One assay deals with T1, Kvβ1-FLAG (mouse) (UniProt P63143).
T1 sequence: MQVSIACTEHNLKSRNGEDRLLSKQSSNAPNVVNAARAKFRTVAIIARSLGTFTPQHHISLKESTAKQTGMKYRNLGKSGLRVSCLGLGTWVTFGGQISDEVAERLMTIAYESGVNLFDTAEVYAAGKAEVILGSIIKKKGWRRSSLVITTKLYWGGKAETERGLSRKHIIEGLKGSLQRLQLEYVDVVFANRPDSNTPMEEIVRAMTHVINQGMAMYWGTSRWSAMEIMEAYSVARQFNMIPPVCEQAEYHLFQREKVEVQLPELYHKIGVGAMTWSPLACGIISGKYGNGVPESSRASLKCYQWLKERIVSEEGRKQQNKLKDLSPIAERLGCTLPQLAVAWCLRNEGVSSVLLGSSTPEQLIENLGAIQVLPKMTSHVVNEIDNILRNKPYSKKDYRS
In words: co-IP; HEK 293T cells co-transfected; Nonidet P-40 lysis buffer (20 mM Tris-HCl pH 7.4, 150 mM NaCl, 1 mM EDTA, 1% NP-40); IP with anti-FLAG; washes with buffer containing 0.5 M NaCl; immunoblot with anti-GFP, anti-HA, anti-FLAG. Background: In western blotting, separated proteins are transferred to a membrane and probed.

Assay [1] deals with T2, Kvβ2 (used as bait beside Kvβ1-FLAG, Fig. S3) (mouse) (UniProt P62482).
T2 sequence: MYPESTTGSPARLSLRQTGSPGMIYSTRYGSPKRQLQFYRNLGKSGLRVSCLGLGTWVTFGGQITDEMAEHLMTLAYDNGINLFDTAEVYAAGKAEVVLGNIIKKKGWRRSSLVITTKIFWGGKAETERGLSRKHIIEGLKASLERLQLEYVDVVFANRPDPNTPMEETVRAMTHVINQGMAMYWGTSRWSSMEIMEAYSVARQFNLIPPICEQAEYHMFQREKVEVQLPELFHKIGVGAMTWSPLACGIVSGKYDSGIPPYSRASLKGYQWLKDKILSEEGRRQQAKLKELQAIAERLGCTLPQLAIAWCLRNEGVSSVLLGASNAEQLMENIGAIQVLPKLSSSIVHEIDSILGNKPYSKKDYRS
The assay is described as above.

Assay [2] deals with T3, FLAG-218–401 (Kvβ1 truncation aa 218–401) (mouse) (UniProt P63143).
T3 sequence: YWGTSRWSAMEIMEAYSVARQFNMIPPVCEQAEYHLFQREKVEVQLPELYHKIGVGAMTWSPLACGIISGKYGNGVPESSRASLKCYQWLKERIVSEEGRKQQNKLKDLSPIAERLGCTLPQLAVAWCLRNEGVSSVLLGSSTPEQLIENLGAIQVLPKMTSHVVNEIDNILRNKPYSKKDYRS
The assay is described as above.

Assay [3] addresses T4, FLAG-73–217 (Kvβ1 truncation aa 73–217) (mouse) (UniProt P63143).
T4 sequence: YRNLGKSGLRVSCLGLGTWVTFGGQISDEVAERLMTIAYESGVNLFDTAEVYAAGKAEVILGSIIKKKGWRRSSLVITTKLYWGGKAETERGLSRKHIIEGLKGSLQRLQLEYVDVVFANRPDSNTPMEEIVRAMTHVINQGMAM
The description is as above.

The target of assay [4] is FLAG-1–359 (TRPV1 N-terminal truncation aa 1–359) (rat) (UniProt O35433). The description is as above.
The target in assay [5] is FLAG-111–359 (TRPV1 N-terminal truncation aa 111–359) (rat) (UniProt O35433). The assay is described as above.
The target in assay [6] is FLAG-111–433 (TRPV1 N-terminal truncation aa 111–433) (rat) (UniProt O35433). The assay is described as above.
Assay [7] has as its target FLAG-1–110 (TRPV1 membrane-distal domain, aa 1–110) (rat) (UniProt O35433). The description is as above.
The target of a further assay is TRPV1-FLAG (rat) (UniProt O35433). Described as above.
For assay [8], the target named is V1-Nt-FLAG (FLAG-tagged TRPV1 N terminus) (rat) (UniProt O35433). The assay is described as above.
The target in assay [9] is V1N-GST (GST-fusion protein containing the N terminus of TRPV1) (rat) (UniProt O35433). In words: pull-down; GST fusion or GST on GSH-Sepharose beads incubated with HEK 293T extract expressing FLAG-Kvβ1, 4 °C overnight, Nonidet P-40 lysis buffer; washes with 0.5 M NaCl; immunoblot; only the target purified.
Assay [10] deals with endogenous TRPV1 of mouse DRG neurons (mouse (endogenous in DRG)) (UniProt Q704Y3). In words: co-IP; homogenised mouse DRG; IP with anti-TRPV1 or control IgG; immunoblot with anti-TRPV1 or anti-Kvβ1; endogenous proteins.
The target of assay [11] is TRPV1 N terminus (aa 1–433) fused to the GAL4 DNA-binding domain (V1-Nt-pGBKT7) (mouse) (UniProt Q704Y3). In words: two-hybrid; yeast two-hybrid experiment referred to in the text only, no figure; format not told.

For the molecule “TRPV1 MPD domain (aa 359–433) (from UniProt O35433 359-433) (domain or fragment)”, the binding result with Kvβ1-FLAG (mouse) is “binds”; in [1], “no binding”.

Regarding TRPV1-HA (from UniProt O35433 1-838), the binding result (in assay [2]; in [3]; in the assay with Kvβ1-FLAG (mouse)) was “binds” throughout.

B1: Kvβ2 (precipitated by FLAG-tagged TRPV1 segments, Fig. S3) (protein, UniProt P62482 1-367)
chain: MYPESTTGSPARLSLRQTGSPGMIYSTRYGSPKRQLQFYRNLGKSGLRVSCLGLGTWVTFGGQITDEMAEHLMTLAYDNGINLFDTAEVYAAGKAEVVLGNIIKKKGWRRSSLVITTKIFWGGKAETERGLSRKHIIEGLKASLERLQLEYVDVVFANRPDPNTPMEETVRAMTHVINQGMAMYWGTSRWSSMEIMEAYSVARQFNLIPPICEQAEYHMFQREKVEVQLPELFHKIGVGAMTWSPLACGIVSGKYDSGIPPYSRASLKGYQWLKDKILSEEGRRQQAKLKELQAIAERLGCTLPQLAIAWCLRNEGVSSVLLGASNAEQLMENIGAIQVLPKLSSSIVHEIDSILGNKPYSKKDYRS
For the molecule B1, the binding result in [4] was “binds”.

B2: Kvβ1-GFP (protein, UniProt P63143 1-401)
chain: MQVSIACTEHNLKSRNGEDRLLSKQSSNAPNVVNAARAKFRTVAIIARSLGTFTPQHHISLKESTAKQTGMKYRNLGKSGLRVSCLGLGTWVTFGGQISDEVAERLMTIAYESGVNLFDTAEVYAAGKAEVILGSIIKKKGWRRSSLVITTKLYWGGKAETERGLSRKHIIEGLKGSLQRLQLEYVDVVFANRPDSNTPMEEIVRAMTHVINQGMAMYWGTSRWSAMEIMEAYSVARQFNMIPPVCEQAEYHLFQREKVEVQLPELYHKIGVGAMTWSPLACGIISGKYGNGVPESSRASLKCYQWLKERIVSEEGRKQQNKLKDLSPIAERLGCTLPQLAVAWCLRNEGVSSVLLGSSTPEQLIENLGAIQVLPKMTSHVVNEIDNILRNKPYSKKDYRS
As to B2, the binding entry is “no binding” in [5]; “binds” in assay [6]; “binds” in assay [7]; “binds” in [4]; “binds” with TRPV1-FLAG (rat); “binds” in assay [8].

B3: Kvβ1-FLAG (protein, UniProt P63143 1-401)
chain: MQVSIACTEHNLKSRNGEDRLLSKQSSNAPNVVNAARAKFRTVAIIARSLGTFTPQHHISLKESTAKQTGMKYRNLGKSGLRVSCLGLGTWVTFGGQISDEVAERLMTIAYESGVNLFDTAEVYAAGKAEVILGSIIKKKGWRRSSLVITTKLYWGGKAETERGLSRKHIIEGLKGSLQRLQLEYVDVVFANRPDSNTPMEEIVRAMTHVINQGMAMYWGTSRWSAMEIMEAYSVARQFNMIPPVCEQAEYHLFQREKVEVQLPELYHKIGVGAMTWSPLACGIISGKYGNGVPESSRASLKCYQWLKERIVSEEGRKQQNKLKDLSPIAERLGCTLPQLAVAWCLRNEGVSSVLLGSSTPEQLIENLGAIQVLPKMTSHVVNEIDNILRNKPYSKKDYRS
As to B3, the binding result in assay [9] is recorded as “binds”.

B4: endogenous Kvβ1 of mouse DRG neurons (protein, UniProt P63143 1-401)
chain: MQVSIACTEHNLKSRNGEDRLLSKQSSNAPNVVNAARAKFRTVAIIARSLGTFTPQHHISLKESTAKQTGMKYRNLGKSGLRVSCLGLGTWVTFGGQISDEVAERLMTIAYESGVNLFDTAEVYAAGKAEVILGSIIKKKGWRRSSLVITTKLYWGGKAETERGLSRKHIIEGLKGSLQRLQLEYVDVVFANRPDSNTPMEEIVRAMTHVINQGMAMYWGTSRWSAMEIMEAYSVARQFNMIPPVCEQAEYHLFQREKVEVQLPELYHKIGVGAMTWSPLACGIISGKYGNGVPESSRASLKCYQWLKERIVSEEGRKQQNKLKDLSPIAERLGCTLPQLAVAWCLRNEGVSSVLLGSSTPEQLIENLGAIQVLPKMTSHVVNEIDNILRNKPYSKKDYRS
Consider B4, for which the binding entry in assay [10] is on record as “binds”.

B5: Kvβ1 aa 218–401 segment (yeast two-hybrid) (domain or fragment, UniProt P63143 218-401)
chain: YWGTSRWSAMEIMEAYSVARQFNMIPPVCEQAEYHLFQREKVEVQLPELYHKIGVGAMTWSPLACGIISGKYGNGVPESSRASLKCYQWLKERIVSEEGRKQQNKLKDLSPIAERLGCTLPQLAVAWCLRNEGVSSVLLGSSTPEQLIENLGAIQVLPKMTSHVVNEIDNILRNKPYSKKDYRS
As to B5, the binding result in [11] is listed as “binds”.

The values are drawn from publication PMC7863878.
